Measured values from the supplement of paper PMC10126150.
Sequences with one replicate were seen in a single cluster, so their values are uncertain.

tested on: ATP; experiment: switch fluorescence ratio, 500 uM ATP over buffer (Cy3 cluster intensity, sum of 5 cycles each) (fold (ratio)); higher = stronger signal-on switching upon ATP binding; sequences stand for … in TCGTCGGCAGCGTCAGATGTGTATAAGAGACAGTTTTTTTTTTTTTTTTTTTTTTTTT…TC; details: aptamer strand: ATP DNA aptamer (quencher-CACCTGGGGGAGTATTGCGGAGGAAGG + anchor), 100 nM annealed; ATP concentration: 500 uM; one replicate
Procedure, shortened: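 Imaging in selection buffer was followed by imaging after 15 min with 500 uM ATP at 22 °C, for Cy3-labelled switching-strand clusters annealed to 100 nM quencher-labelled ATP aptamer on a modified Illumina MiSeq flow-cell. Five of these buffer/ATP cycles ran, separated by NaOH stripping and re-annealing. The fluorescence ratio per cluster is summed target-cycle over summed buffer-cycle Cy3 intensity, averaged per switch-domain sequence; clusters outside 100-1000 RFU were removed.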
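Also: ATP exposure 15 min at 22 °C before imaging.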

Sequence | switch fluorescence ratio
CCTTAAGAAG | 0.987
CCTTAAGTTT | 1.06
CCTTAATAGT | 1.01
CCTTACACG | 1.14
CCTTATGAGA | 1.03
CCTTATTAAT | 1.07
CCTTCACTCC | 3.52
CCTTCACTTG | 1.07
CCTTCAGGCG | 1.51
CCTTCAGTCG | 1.29
CCTTCCCCAT | 2.65
CCTTCCCGTG | 2.12
CCTTCGATTT | 1.25
CCTTCGTATG | 1.21
CCTTCTCTAT | 1.19
CCTTGACGAG | 0.97
CCTTGAGTTT | 0.995
CCTTGATCGA | 0.985
CCTTGCATTG | 1.76
CCTTGGACCA | 0.972
CCTTGGATAG | 1.07
CCTTGGCAAG | 3.72
CCTTGGCGAT | 5.39
CCTTGGTTCT | 1.01
CCTTGTCTTG | 1.03

Sequence | switch fluorescence ratio
CCTTGTTCAC | 1.04
CCTTTAAATG | 1.07
CCTTTCAAAA | 1.04
CCTTTGGGAA | 0.98
CCTTTGGTAG | 0.968
CCTTTTCCAG | 1.03
CCTTTTTGCC | 0.972
CGAAACTGAG | 1.05
CGAAAGGAGC | 1.04
CGAAAGGGG | 1.02
CGAAAGTCGT | 1.01
CGAACAGAGG | 0.971
CGAACCAAAT | 0.99
CGAAGAATCT | 0.996
CGAAGAATGG | 1.02
CGAAGAGAGC | 0.939
CGAAGCATCA | 2.82
CGAAGCGAAA | 1.15
CGAAGGCGAT | 1.13
CGAAGGGATC | 1.18
CGAAGGGCTT | 0.989
CGAAGGTCTG | 0.993
CGAAGTTGAT | 1.03
CGAATAAATG | 0.983
CGAATCTACA | 1.02

Sequence | switch fluorescence ratio
CGAATCTGCG | 0.99
CGAATGAGCC | 0.985
CGAATGCAGT | 0.978
CGAATGGCGA | 1
CGAATTAAGA | 0.996
CGAATTATAA | 0.967
CGAATTGATG | 0.964
CGACACCATT | 1.55
CGACACGATG | 1.05
CGACACTATC | 2.93
CGACAGGAA | 1.19
CGACAGTT | 1.01
CGACAGTTAG | 1
CGACCAGGCA | 1.1
CGACCAGGTT | 1.95
CGACCCGAGG | 1.2
CGACCCGGGT | 1.08
CGACCGCTGA | 3.39
CGACGAATCA | 0.935
CGACGAGCAC | 3.82
CGACGAGGTG | 1.14
CGACGATGGA | 1.08
CGACGCCATT | 2.43
CGACGCTACG | 1.96
CGACGGGGAA | 1.06

Sequence | switch fluorescence ratio
CGACTCCAAG | 1
CGACTCGTAG | 0.999
CGACTCTCGG | 0.969
CGACTCTGAG | 0.992
CGACTCTGTT | 1.02
CGACTGTGTT | 1.02
CGACTTAGTG | 0.976
CGAGAAAAAC | 2.34
CGAGAATGA | 1.03
CGAGAATGT | 0.963
CGAGAGCAGG | 1.06
CGAGAGCTAT | 1.61
CGAGAGGGTT | 0.981
CGAGAGTAGG | 1
CGAGAGTTCA | 0.959
CGAGCAGCCT | 1.1
CGAGCAGGAG | 1.96
CGAGCGAGTC | 0.96
CGAGCGCCTG | 0.994
CGAGCGCGAG | 0.991
CGAGCGGGT | 1.05
CGAGGAAGAT | 1.11
CGAGGACACT | 0.979
CGAGGACTAA | 1.01
CGAGGAGACG | 1.03

Sequence | switch fluorescence ratio
CGAGGATGTC | 1.05
CGAGGCCATA | 2.28
CGAGGCCTTG | 0.995
CGAGGCGCCA | 0.967
CGAGGCTATG | 1.25
CGAGGCTCTG | 1.02
CGAGGCTGAG | 1.01
CGAGGGTGAT | 1.08
CGAGGGTTAA | 1.08
CGAGGTGCAG | 1.01
CGAGTAACAG | 1.01
CGAGTATAAG | 0.977
CGAGTGCTTG | 0.952
CGAGTTAACG | 0.981
CGAGTTACTT | 1.06
CGAGTTCCCG | 0.983
CGAGTTTATT | 1.02
CGAGTTTCGT | 0.981
CGAGTTTGGT | 1.09
CGATAAAAGG | 0.971
CGATAAGAGA | 0.995
CGATAGATTT | 1.05
CGATAGGAGG | 0.981
CGATAGTTCA | 0.982
CGATAGTTTA | 0.996

Sequence | switch fluorescence ratio
CGATATAGTA | 1.01
CGATATATGT | 0.937
CGATATCACA | 1.06
CGATCAATAA | 1.84
CGATCACAAA | 1.05
CGATCCGTAC | 1.63
CGATCTCTTT | 0.985
CGATCTGGAG | 0.97
CGATCTTTA | 0.999
CGATGAAGCT | 0.976
CGATGATCAG | 0.986
CGATGATCGT | 0.946
CGATGCCCGT | 0.972
CGATGGAAA | 0.967
CGATGGCACC | 1.26
CGATGGCCAA | 0.977
CGATGGCGCG | 0.97
CGATGGCGGA | 1.08
CGATGGGCA | 1.03
CGATGGTAAC | 1.11
CGATGTGAG | 0.984
CGATTAACGC | 1.09
CGATTACCCC | 1.1
CGATTAGACT | 1.01
CGATTCAATG | 1.13

Sequence | switch fluorescence ratio
CGATTCACCG | 0.984
CGATTGCGGC | 1.1
CGATTGGCGG | 0.952
CGATTTATTA | 0.991
CGATTTCTTT | 0.974
CGATTTGCTG | 1.05
CGATTTTTAT | 1.01
CGCAACATGA | 1.4
CGCAATTGAT | 3.25
CGCACATTGG | 1.09
CGCACCTAAG | 1.14
CGCACGATGT | 1.06
CGCACTCCTG | 1.51
CGCAGAAAAC | 1.06
CGCAGATATC | 1.59
CGCAGCAGCA | 1.59
CGCAGGGAAC | 1.5
CGCAGGGTAT | 1.04
CGCAGTAATC | 4.13
CGCAGTTATA | 1.22
CGCAGTTATG | 1.06
CGCATAAAGA | 1.04
CGCATACAGT | 1.63
CGCATACCCT | 2.79
CGCATATCGG | 1.43

Sequence | switch fluorescence ratio
CGCATCCCGA | 1.14
CGCATCGCTC | 1.57
CGCATGGCTT | 1.1
CGCATGGGGA | 1.05
CGCATTCCCT | 1.93
CGCATTTACC | 3.35
CGCATTTGGC | 1.25
CGCCAATATA | 1.33
CGCCACCATT | 0.998
CGCCAGGATC | 0.954
CGCCCATGGT | 1.7
CGCCCGGTA | 1.08
CGCCGAGAGG | 1
CGCCGGACAG | 1.01
CGCCTGAAGG | 0.975
CGCCTGATAT | 1
CGCCTTTCT | 1.03
CGCCTTTGAA | 1
CGCGACCGCT | 1.09
CGCGAGCGAC | 1
CGCGAGGGTG | 1.19
CGCGCCACG | 1.03
CGCGCCCTCG | 1.03
CGCGCCTCGC | 1.04
CGCGCGAGTT | 0.986
